The other results are listed elsewhere or left out. At the low end of the ranking, values are background and their order means little.

This assay concerns the target PU.1 (IVT) (UniProt P17947). The assay can be described thus: protein-binding microarray (PBM). The following applies: 20 mM HEPES pH 7.9, 100 mM NaCl, 1 mM DTT, 0.2 mg/mL BSA, 0.02% Triton X-100, 2% milk, 0.4 mg/mL salmon testes DNA; 1 h; temperature not stated; high values mean tight binding; double strand, one strand shown; sequences stand for … in GCCTAGCAC…GTGCTAGGTCTTGATTCGCTTGACGCTGCTG
In the case of CTGCCAGGGAAGTGAAAGCA, the binding signal came to 0.952 z-score. Consider GCTAAGAGGAACTGAAAGCT, for which the binding signal was found to be 3.51 z-score. As to CTGGCAGGGAACTGCAACTC, the binding signal was found to be 0.387 z-score.

TCCAGGAGGAACTGAAAGCT: the binding signal stood at 1.74 z-score.

For the sequence GATAAGAGGAACTGAAAGAT, the binding signal amounted to 4.13 z-score. The sequence GAAAAGAGGAAGGGAAACTG came in with a binding signal of 5.02 z-score.

Regarding TGAAACAGGAAGTGACACCA, the binding signal came out at 6.93 z-score.

TAAAGGAGGAACTGACACCA returned a binding signal of 3.55 z-score.

In the case of ATAAAAAGGAAATGAAAGTA, the binding signal is 2.01 z-score.

CTGGCAGGGAACTGACACTC displayed a binding signal of -0.0602 z-score. In turn, GTTAAGAGGAACTGAAAGCT had a binding signal of 3.77 z-score. As for GTGGTAGGGAAGTGAAACTG, the binding signal was found to be 3.26 z-score. For GATAAGAGGAACTGAAAGCA the value was 4.01 z-score; for GATAAGAGGATCTGAAAGCT, 0.169 z-score; for TGGCAGAGGAAGTCAAACTA, 2.5 z-score.

As to TGAAAGAGGAACCGAAACTC, the binding signal came out at 4.2 z-score. For the sequence AAGAAAGAGAACTGAAAGTA, the binding signal was found to be 0.933 z-score. For AACATGAGGAACTGAAACTG the value was 3 z-score; for TGGCGGAGGAAGTGAAACTA, 2.7 z-score.

As to TAAAGGAGGTACTGAAACCA, the binding signal was determined as 0.362 z-score. Consider TGAGAGGTGAAGTGAAACCT, for which the binding signal worked out at 0.0752 z-score. TTTTTGAGGAACTGAAACTC displayed a binding signal of 4.66 z-score. TGGCAGAGGAAATGAAACTA: the binding signal worked out at 1.28 z-score. The value for TGGCAGAGGAAGTGCAACTA was 2.82 z-score; that for TAAGAGGAGAAGTGAAACCT was 1.19 z-score. In the case of AAAAAAAGGAAATGAGAGTA, the binding signal worked out at 2.8 z-score. Sequence AAAAAGAGGAAGAGAAACTG came in with a binding signal of 5.82 z-score. Consider TGGCCGAGGAAGTGAAACTA, for which the binding signal stood at 1.3 z-score. With GTGCAAAGGAAGTGAAACTA, the binding signal was determined as 1.56 z-score. For GATAAGAGGAACTGTAAGCT the value was 3.92 z-score; for AAAAGGAGGAAGCGAAACTC, 3.6 z-score. The value for TAAAGCAGGAACTGAAACCA was 2.13 z-score. For CTGCCAGGGAGGTGAAAGCA the value was -0.159 z-score.

The record behind these values is paper PMC6451091.
